Laboratory results as given in the RNAGym collection of RNA variant scans (doi:10.7554/elife.90254).
Read counts are not given, so values of variants with three or more changes are uncertain.

B1: LINE1-mini (parent)
chain: GGCAGAGCUCAACACAGCGUGGCAAAGUGGCUGUGGCUAGACUGCC

Variants of: B1
Experiment: self-cleavage, relative activity (ratio to wild type); higher = more cleavage; in vitro, sequencing; the parent is a self-cleaving ribozyme

Variant | self-cleavage
GGCAGCGCUUAACACAGCGUGGCAAAGUUGCUGUGGCUAGACUGCC [A6C C10U G29U] | 0.14
GGCAGCGCUCAAGACCCCGUGGCAAAGUGGCUGAGGCUAGACUGCC [A6C C13G A16C G17C U34A] | 0.27
GGCAGCGCUCAAUACGGCGUGGCAAAGUGGCUGUGGCUAUACUGCC [A6C C13U A16G G40U] | 0.04
GGCAGCGCUCAAUACAGCGUGUCAAAGUGGCUGUGGCUAGAUUGCC [A6C C13U G22U C42U] | 0.12
GGCAGCGCUGAACUCAGCGUGGCAAAGUGGCUGAGGCUAGACUGCC [A6C C10G A14U U34A] | 0.02
GGCAGCGUUCAACACAGCGUGGCAAAGUAGCUGUGGCUAGACUGCC [A6C C8U G29A] | 0.08
GGCAGCGCUAAACACAGCGUGGCAAACUGGCUGUGGCUAGAUUGCC [A6C C10A G27C C42U] | 0.02
GGCAGCGCUCAAUACAGCGUGGCAAAGUGGCUGUUGCUAGACUGCC [A6C C13U G35U] | 0.07
GGCAGCGCUAAACACAGCGUGUCCAAGUGGUUGUGGCUAGACUGCC [A6C C10A G22U A24C C31U] | 0.01
GGCAGCGCUCAAUACAGCGUGGCAAAGUGGCUGUCGCUAGACUGCA [A6C C13U G35C C46A] | 0.03
GGCAGCGCUAAACACAGCGUGGCAAAGUGGCUGUGGCUAUACUGCC [A6C C10A G40U] | 0.06
GGCAGCGCUCAAAAUAGCGUGGCAGAGUGGCUGUGGCUAGACUGUC [A6C C13A C15U A25G C45U] | 0.04
GGCAGCGUUCAACAAAGUGUGGCAAAGUGGCUUUUGCUAGACUGCC [A6C C8U C15A C18U G33U G35U] | 0.01
GGCAGCGCUCAAUACAGCGUGGCAAAGUGGCUUUGGCUAGACUGCC [A6C C13U G33U] | 0.05
GGCAGCGCUAAACACAGUGUGGCAAAGUGGCUGUGGCUGGACUGCC [A6C C10A C18U A39G] | 0.01
GGCAGCGCUCAAUACAGCGUGAUAAAGUGGCUGUGGCUAUACUGCC [A6C C13U G22A C23U G40U] | 0.2
GGCAGCGCUUAACACAGCGUGGCAAAGUGGCUGUGGUUAGACUGCC [A6C C10U C37U] | 0.03
GGCAGCGCUCAAUACUGCUUGGCAAAGUGGCUGUGGCUAGACUGCC [A6C C13U A16U G19U] | 0.08
GGCAGCGCUCAAUACCGCGUGGCAUUGUGGCUGUGGCUGGACAGCC [A6C C13U A16C A25U A26U A39G U43A] | 0.01

Variant | self-cleavage
GGCAGCGCUCAAGACGGCGAUGCAAACUGGCUGUGGCUAGACUCCC [A6C C13G A16G U20A G21U G27C G44C] | 0.03
GGCAGCGCUCAACAAAGCGGGGCAAAUUGGCUGUGGCUAGAGUGCC [A6C C15A U20G G27U C42G] | 0.05
GGCAGCGCUAAACAAAGUGUGGCAAAGUGACUGUGGCUAGACUGCC [A6C C10A C15A C18U G30A] | 0.01
GGCAGCGCUCAAUACAGCGUGACAAAGUGGCUGUGGCUAGACUGCC [A6C C13U G22A] | 0.03
GGCAGCGCUCAAUACAGCGUGCCAAAGUGGCUGUGGCUAGACUGCC [A6C C13U G22C] | 0.08
GGCAGCGCUCAACAGAGCGUGGCAAGGUGGCUGUGGUCAGACUGCC [A6C C15G A26G C37U U38C] | 0.01
GGCAGCGCUCAAUACAGAGUGGCAAAGUGGCUGUGGCUAGACUGCC [A6C C13U C18A] | 0.04
GGCAGCGCUGAACACAGCGUGGGAAUGUGGCUGUGGCUAGACUGCC [A6C C10G C23G A26U] | 0.03
GGCAGCGCUAAACACAGCGUGGCAAAGUGGCUGGGGCUAGACUGCC [A6C C10A U34G] | 0.03
GGCAGCGCUAAACACAGCGUGGCAUAGUGGCUGUGGCUUGACUGCC [A6C C10A A25U A39U] | 0.11
GGCAGCGUUCAACACAGCGUGGCAAAGUGGCUGUGCCUAGAAUACC [A6C C8U G36C C42A G44A] | 0
GGCAGCGCUAAACGUAGCGUGGCAAAGUUGCUGUUGCUAGACUGCC [A6C C10A A14G C15U G29U G35U] | 0.03
GGCAGCGCUAAACACACCGUGGCAAAGUGGCUGUGGCUAGACUGCC [A6C C10A G17C] | 0.06
GGCAGCGCUAAACACAGCGUAGCAAAGUUGCUGUGGCUAGACUGCC [A6C C10A G21A G29U] | 0.05
GGCAGCGCUGAACACAGCGUGGCAAAGUGGCUCUCGCUAGACUGCC [A6C C10G G33C G35C] | 0.01
GGCAGCGCUUAACAAGGCGUGGCAAAGUGGCUGUGCCUAGACUGCC [A6C C10U C15A A16G G36C] | 0.06
GGCAGCGCUCAACAAAGCGUGGCAAAGUGUCUGUGGCUAGACUGGC [A6C C15A G30U C45G] | 0.01
GGCAGCGCUAAACACAGCGUGGCAAAGUGUCUGUGGCUAGACUUCC [A6C C10A G30U G44U] | 0.02
GGCAGCGCUAAACACAGCGUGGCAAAGUGGUGGUGGCCAGACUGCG [A6C C10A C31U U32G U38C C46G] | 0

Variant | self-cleavage
GGCAGCGCUAAACACAGCGUGGCAAAGAGGCUGUGGCUAGAUUGCC [A6C C10A U28A C42U] | 0
GGCAGCGCUUAACACAGCGUGGCAAAGUGGCUGUGACUAGACUGCC [A6C C10U G36A] | 0.01
GGCAGCGCUCAAGACAGCGUGGCAAAGUGGCUGUGGCAAGAGUGCC [A6C C13G U38A C42G] | 0.01
GGCAGCGCUAAACACAGCAUGGCGUAGUGGCUGUGGCUAGACUGCC [A6C C10A G19A A24G A25U] | 0.24
GGCAGCGCUCAAGACAGCGUGGCAAAGUGGCUGUGGCUAGACUUCC [A6C C13G G44U] | 0.06
GGCAGCGCUCAAGACAGCAUGGCAAAGUGGCUGUGGCUAGACUGCC [A6C C13G G19A] | 0.51
GGCAGCGCUUAACACAGCGUGGCAAAGGGGCUGUGGCUAGACUGGC [A6C C10U U28G C45G] | 0.02
GGCAGCGCUGAACACAGCGUGGCUAAGGGGCUGUGGCAAGACUGCC [A6C C10G A24U U28G U38A] | 0.01
GGCAGCGCUAAACACAGCGUGGCAAAUUGGCUGUGGCUAAACUGCC [A6C C10A G27U G40A] | 0.03
GGCAGCGCUUAACACAGCGAGGCAAAGUGGCUGUGGCUAGACUGCC [A6C C10U U20A] | 0.08
GGCAGCGCUCAACAAUGCGUGGCAAAGUGGAUGUGGCUAGACUGCC [A6C C15A A16U C31A] | 0.05
GGCAGCGUUCAACACAGCGUGGCAAAGUGGCUGUGGCUAUACUGCC [A6C C8U G40U] | 0.3
GGCAGCGCUAAACACACCGUGGCUAAGCGGUUGUGGCUAGACUGCC [A6C C10A G17C A24U U28C C31U] | 0.01
GGCAGCGCUAAACACAGCAUGGCAAAGUGGCUGUGGCUAGACUGGC [A6C C10A G19A C45G] | 0.01
GGCAGCGCUAAACACAGCGUGGCAAGGUGGCUGUGGCUAGACUGCC [A6C C10A A26G] | 0.01
GGCAGCGUUCAACACAGCGUGGGAAAAUGGCUAUGGCUAGAAUACC [A6C C8U C23G G27A G33A C42A G44A] | 0.06
GGCAGCGCUUAACACAGCGUGGUAAAGUGGAUGUGGCUAGACUGCC [A6C C10U C23U C31A] | 0.05
GGCAGCGCUCAAAUCAGCGUGGCAAAGUGGCUGUGGCUAGACUGCC [A6C C13A A14U] | 0.16
